Assay results reported in PubChem BioAssay AID995 (National Center for Advancing Translational Sciences (NCATS), 2007).
In all, about 72,000 compounds went through this assay and about 710 (0.99%) were called active. The shares of active, inactive and inconclusive entries below differ from those in the screen. Calls come from the whole dose curve; as a rule, active = well fitted inhibition curve with a large enough effect; inconclusive = small, poorly fitted or top-dose-only effect; inactive = no such curve, though single readings can be large or run the other way. No potency is given beside an inconclusive call; the fits are too rough.

Test: qHTS Assay for Inhibitors of the ERK Signaling Pathway using a Homogeneous Screening Assay; note: nearly all actives have a fitted effect of over 55% in size
Settings: HEK293-V1b, vasopressin-stimulated pERK AlphaScreen; activity, negative = inhibition: at 57.5 µM (top of the series) unless noted
Procedure, shortened: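 V1b-HEK293 cells; cpd 30 min 37C; 25 nM vasopressin 5 min; lyse 10 min; AlphaScreen beads 5 hr RT. Normalized to DMSO basal and 25 nM vasopressin; AC50 by Hill fit.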
% is set by controls: 0 for no effect and ±100 for the full control effect; potency is the fitted concentration of half-maximal effect; tags give direction and shape of the fitted curve.

Compound | activity, negative = inhibition | Potency
NC(=O)c1ccsc1NC(=O)C1CCCN1S(=O)(=O)c1ccc(Cl)cc1 (stereo not drawn) | inactive: -24.5% | 
Cc1cc(OCC(=O)Nc2ccncc2)ccc1Br |  | inconclusive [inhibitor, single point]
Clc1ccc2nc(SCc3nnc(-c4ccccc4)o3)[nH]c2c1 |  | inconclusive [inhibitor, single point]
CC1CN(c2nc(-c3ccccc3)nc3ccccc23)CC(C)O1 (stereo not drawn) |  | inconclusive [inhibitor, partial curve, poor fit]
c1ccc(CNc2ncnc3ccc(-c4ccc5c(c4)OCO5)cc23)cc1 |  | inconclusive [inhibitor, partial curve, poor fit]
CC(=O)C(C)Oc1ccc2c3c(c(=O)oc2c1C)CCCC3 (stereo not drawn) |  | inconclusive [inhibitor, partial curve]
CC(NC(=O)c1cccs1)C(c1cccs1)N1CCN(c2ccccc2)CC1 (stereo not drawn) |  | inconclusive [inhibitor, partial curve]
Cc1cccc(CNc2nc(-c3cccnc3)nc3ccccc23)c1 |  | inconclusive [inhibitor, single point]
Cc1nc2ccccc2c2oc(C(=O)NCCCN3CCCC3=O)cc12 |  | inconclusive [inhibitor, single point]
CCc1cccc(NC(=O)CS(=O)Cc2nc(-c3ccc(C)cc3)oc2C)c1 (stereo not drawn) |  | active: 31.6 µM
COc1cccc(Cn2c(=O)c(-c3cccc(F)c3)nc3cncnc32)c1 |  | inconclusive [inhibitor, full curve, poor fit]
CC1=C(C#N)C(c2ccc3ncccc3c2)C(C#N)=C(C)N1 |  | inconclusive [inhibitor, single point]
CCn1c(=O)cc(SCC(=O)N2CCN(c3ccccc3OC)CC2)c2ccccc21 |  | active: 25.1 µM
COC(=O)N1[C@H](Cc2ccccc2)C=C[C@]1(C)C(=O)O | inactive: -5.23% | 
Cc1cc(OCC(=O)NCCN2CCOCC2)ccc1Br |  | inconclusive [inhibitor, single point]
COc1ccc(-c2noc(CN(C)S(=O)(=O)c3ccc(Cl)cc3)n2)cc1OC |  | inconclusive [inhibitor, single point]
Cc1cnc(CNc2nc(-c3ccoc3)nc3ccccc23)cn1 |  | inconclusive [inhibitor, partial curve]
O=c1cc(-c2cccc(O)c2)oc2c(O)c(O)ccc12 |  | inconclusive [inhibitor, partial curve, poor fit]
COc1ccccc1NC(=O)Nc1ccc2c(c1)OCCO2 | inactive: -20.7% | 
CCOC(=O)c1c(C)nc2sccn12 |  | inconclusive [inhibitor, full curve]
N/C(=N\O)c1cn([C@@H]2O[C@@H](CO)[C@H](O)[C@@H]2O)c2ncnc(NO)c12 | inactive: 5.13% [at 11.5 µM] | 
COc1ccc2[nH]cc(CCNc3ncncc3-c3ccc4c(c3)OCO4)c2c1 |  | inconclusive [inhibitor, partial curve]

Compound | activity, negative = inhibition | Potency
COc1ccc(NC(=O)NCCCN2CCN(c3cc(C)ccc3C)CC2)cc1 |  | inconclusive [inhibitor, partial curve]
Cc1cc(-c2ccccc2C(=O)NCc2ccccc2)on1 |  | inconclusive [inhibitor, partial curve]
Oc1c(Cl)cc(Cl)cc1Sc1cc(Cl)cc(Cl)c1O |  | inconclusive [inhibitor, partial curve]
N#Cc1cccc(NC(=O)COc2ccc(-n3ccnc3)cc2)c1 |  | inconclusive [inhibitor, single point]
CC[C@H]1C2=C3C(CC[C@H]4C(OCc5ccc(F)cc5C(F)(F)F)OC[C@](C)([C@@H]34)N(C(=O)OC(C)(C)C)C2)C2COC(=O)OCC21 (stereo partly drawn) | inactive: -1.05% | 
COc1cccc(-c2ccc3ncnc(N(C)C)c3c2)c1 |  | inconclusive [inhibitor, partial curve]
CN(CC(CC(=O)Nc1nncs1)c1ccccc1)S(=O)(=O)c1ccccc1 (stereo not drawn) |  | inconclusive [inhibitor, partial curve, poor fit]
COC(=O)c1oc2ccc(Cl)cc2c1NC(C)=O |  | inconclusive [inhibitor, full curve, poor fit]
N#Cc1ccccc1Cn1c(-c2cscn2)nc2ccccc21 |  | inconclusive [inhibitor, partial curve, poor fit]
CCS(=O)(=O)Nc1ccc(-c2nnc(SCC(=O)c3cccc(OC)c3)o2)cc1 | inactive: -16.1% | 
COc1cc(Br)cc(-c2nc3c(c(=O)[nH]c(=O)n3Cc3ccccc3)n2C)c1O |  | inconclusive [inhibitor, partial curve]
O=C(CSc1nnc(-c2cccnc2)n1Cc1ccco1)N1c2ccccc2Sc2ccccc21 |  | inconclusive [inhibitor, single point]
c1ccc(B2OC[C@@H]3OB(c4ccccc4)O[C@H]([C@@H]4COB(c5ccccc5)O4)[C@@H]3O2)cc1 | inactive: 5.4% [at 11.5 µM] | 
CNc1nc(-c2ccccc2Cl)nc2ccccc12 |  | inconclusive [inhibitor, single point]
O=C1CSC(=S)N1Cc1cccnc1 |  | inconclusive [inhibitor, single point]
CN(C)c1ccc(C(=S)N2CCN(c3ccccc3)CC2)cc1 |  | inconclusive [inhibitor, partial curve]
Cc1nnc(C)n1/N=C/c1cccc(Oc2ccccc2)c1 | inactive: 10% | 
CCc1nc(NCc2ccccn2)c2oc3ccccc3c2n1 |  | inconclusive [inhibitor, partial curve]
Cc1nc(N2CCCC2)c2ccsc2n1 |  | inconclusive [inhibitor, full curve]
O=C(C1CCN(c2ncnc3c2sc2cccc(F)c23)CC1)N1CCOCC1 |  | inconclusive [inhibitor, single point]
O=C(Nc1ccc2c(c1)OCO2)N1CCN(c2cccc(C(F)(F)F)c2)CC1 |  | inconclusive [inhibitor, partial curve]
